Some of the results follow.

The assay addresses T1, OsWOX13 (Oryza sativa, UniProt Q5QMM3 1-267).
T1 sequence: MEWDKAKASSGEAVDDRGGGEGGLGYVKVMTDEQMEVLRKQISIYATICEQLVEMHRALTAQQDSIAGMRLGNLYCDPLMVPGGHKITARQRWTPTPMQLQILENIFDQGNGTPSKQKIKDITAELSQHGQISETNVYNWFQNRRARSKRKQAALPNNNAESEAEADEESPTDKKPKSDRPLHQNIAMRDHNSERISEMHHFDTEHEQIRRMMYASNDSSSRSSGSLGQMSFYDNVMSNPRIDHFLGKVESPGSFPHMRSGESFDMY
The assay can be described thus: protein-binding microarray (RPBM); PBS, 2% BSA, 51.3 ng/ul salmon testes DNA, 50 uM zinc acetate, 200 nM TF, 25 C, 1 h; high values mean tight binding. Conditions: protein: recombinant; tags: N-terminal polyhistidine and DsRed monomer fusion (pET32a); label: CyDye5-dUTP incorporated in the synthesized complementary strand; 3' TTTTT single-stranded linker to array surface; dsDNA, one strand shown. In outline: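 In PBS with 2% BSA, salmon testes DNA and 50 µM zinc acetate, 200 nM protein was incubated on a custom Agilent array at 25 °C for 1 h and then washed off. The array had been made double-stranded by primer extension with Cy5-dUTP and blocked with 2% BSA. The proteins were transcription factors fused N-terminally to polyhistidine and DsRed, expressed in E. coli BL21-CodonPlus and purified on Ni–NTA. The binding signal is per-feature fluorescence intensity (arbitrary units) from an Axon 4000B scanner.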
For the sequence “TTAAGATGATAGGTTGTTGGATTGAAATATGCCTATCAAACGGAGTCACCTAGTGCAG”, the binding signal is 15800 fluorescence intensity (a.u.).

Turning to “AATCAATCCATTAATATTTAACATGATCAGGCATTAGTCGCGGAGTCACCTAGTGCAG”, the binding signal was 23700 fluorescence intensity (a.u.). The value for “CCCATTAGAATTGATTGTGTTTACAGGGACTTGTATAAAACGGAGTCACCTAGTGCAG” was 10100 fluorescence intensity (a.u.).

“CCATGTTTCTATTACCGTTAATTAGGATAATAGTACGAATCGGAGTCACCTAGTGCAG”: the binding signal is 14400 fluorescence intensity (a.u.). The value for “GCATCGAAGATTGAAGCACTCAGTAGTCAGTATAGGTTATCGGAGTCACCTAGTGCAG” was 4430 fluorescence intensity (a.u.). The result for “GTTCAGATTAACAGTAATTAAAATAATGCAACCGTGGTGCCGGAGTCACCTAGTGCAG” reads 29500 fluorescence intensity (a.u.); that for “TAACCTACTGTCAATATAATTGATCAGGTCACTGAATTGACGGAGTCACCTAGTGCAG”, 13700 fluorescence intensity (a.u.). The value for “CCGATAGATGGTGATTGAGATTTTAGAGGCACACTTCTGCCGGAGTCACCTAGTGCAG” was 45800 fluorescence intensity (a.u.); that for “TAATGTGAATGATGATTGTATAGGGTGCTGTACATTCCTTCGGAGTCACCTAGTGCAG” was 5000 fluorescence intensity (a.u.). Take “TGAAATTTCATCCATCAATTGGAGTGCAACTTGTAATAGGCGGAGTCACCTAGTGCAG”: the binding signal was 13100 fluorescence intensity (a.u.). For the sequence “ACTTGCTAAATTGCTAAATGAGGATTTAGCAAGTGGATGTCGGAGTCACCTAGTGCAG”, the binding signal is 13500 fluorescence intensity (a.u.). In the case of “ATTTGATCAAATTTTATTTTAAAATTCATATAATTTCGGACGGAGTCACCTAGTGCAG”, the binding signal is 7550 fluorescence intensity (a.u.). The value for “GGCTTTAATTGATCACTATGAATACTTGGCTTGTTGTCATCGGAGTCACCTAGTGCAG” was 49500 fluorescence intensity (a.u.). As to “ATCCGATTAATTAATTTGATTTAATGTAATGTAATTAGGGCGGAGTCACCTAGTGCAG”, the binding signal is 64600 fluorescence intensity (a.u.). The result for “TTGACAAAATTTTGGTAAAATATGGTTGTTTGGTTTGTTTCGGAGTCACCTAGTGCAG” reads 5940 fluorescence intensity (a.u.); that for “TAAATTTAATTAGAGATTTGTTTAAATAATTTAAGACTAACGGAGTCACCTAGTGCAG”, 14200 fluorescence intensity (a.u.). For “AAATTAATTATAAATATTAAACGTAGACTATTAATAAAACCGGAGTCACCTAGTGCAG”, the binding signal was 15600 fluorescence intensity (a.u.). As for “CTAATTGGCTGACGCCACAACTCCCACTTCGCCACCCTCACGGAGTCACCTAGTGCAG”, the binding signal is 32700 fluorescence intensity (a.u.).

In the case of “GCTGTGATTTCTCATCCAACACAACATTATGCCATCACTACGGAGTCACCTAGTGCAG”, the binding signal is 5790 fluorescence intensity (a.u.). Regarding “AGCGGTGTGACATATAAACTGATTAGTAACCGGTGGTGTGCGGAGTCACCTAGTGCAG”, the binding signal was 21300 fluorescence intensity (a.u.). The result for “ATTAATTAATTAATTAAATGCGGTGAGCAATAATGATTAACGGAGTCACCTAGTGCAG” reads 40900 fluorescence intensity (a.u.).

Take “ATAACTAATTACACAGATTGCGACTAATTTGCGAGACGAACGGAGTCACCTAGTGCAG”: the binding signal is 45700 fluorescence intensity (a.u.). As to “ATGATATATAAAATATAAATTACTCCTTTCCAATCCTAAGCGGAGTCACCTAGTGCAG”, the binding signal was 3220 fluorescence intensity (a.u.).
